These results are taken from paper PMC9262947.

Protein sequences, listed by entry. Tags and fused reporters are not part of them.
UniProt P0AEZ3: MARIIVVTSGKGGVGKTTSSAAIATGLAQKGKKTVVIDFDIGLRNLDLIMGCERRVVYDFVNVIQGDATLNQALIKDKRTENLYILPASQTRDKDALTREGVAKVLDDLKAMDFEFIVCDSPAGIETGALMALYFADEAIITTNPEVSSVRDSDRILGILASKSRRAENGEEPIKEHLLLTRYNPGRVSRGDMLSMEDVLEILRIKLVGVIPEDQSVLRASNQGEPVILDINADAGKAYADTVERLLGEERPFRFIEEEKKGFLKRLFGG
UniProt P0A9A6: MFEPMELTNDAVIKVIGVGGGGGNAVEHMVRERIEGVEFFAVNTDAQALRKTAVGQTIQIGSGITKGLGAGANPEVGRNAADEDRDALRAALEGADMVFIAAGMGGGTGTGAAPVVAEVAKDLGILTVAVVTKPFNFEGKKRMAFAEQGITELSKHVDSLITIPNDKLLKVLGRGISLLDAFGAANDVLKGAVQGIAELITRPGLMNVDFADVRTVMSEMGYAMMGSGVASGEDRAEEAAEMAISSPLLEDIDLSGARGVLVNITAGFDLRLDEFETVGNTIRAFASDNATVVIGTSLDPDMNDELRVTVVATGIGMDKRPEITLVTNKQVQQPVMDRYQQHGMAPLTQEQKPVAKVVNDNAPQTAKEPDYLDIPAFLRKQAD

The target of assay [1] is T1, eGFP-MinC (fusion between the enhanced green fluorescent protein and MinC) (E. coli) (UniProt P18196).
T1 sequence: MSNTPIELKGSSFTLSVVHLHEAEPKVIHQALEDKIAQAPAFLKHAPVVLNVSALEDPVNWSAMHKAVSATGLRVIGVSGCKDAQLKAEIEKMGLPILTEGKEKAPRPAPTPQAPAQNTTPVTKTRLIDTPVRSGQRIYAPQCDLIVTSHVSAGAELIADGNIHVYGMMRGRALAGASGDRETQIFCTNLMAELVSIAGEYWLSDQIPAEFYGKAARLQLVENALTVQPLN
In words: recruitment to a supported lipid bilayer, fluorescence microscopy; MinD and MinE pre-expressed in PUREfrex2.0 from the bi-cistronic template (no FtsA), supplemented with 0.5 µM purified eGFP-MinC, 3 µM purified FtsZ-A647, 2 mM GTP, 2.5 mM ATP, on a DOPC/DOPG bilayer, imaged at 37 °C; both purified.

Another assay addresses MinD (E. coli) (UniProt P0AEZ3). In words: recruitment to a supported lipid bilayer, fluorescence microscopy; anchor or Min proteins pre-expressed in PUREfrex2.0 with DnaK mix (3 h, 37 °C), supplemented with 3 µM purified FtsZ-A647, 2 mM GTP, 2.5 mM ATP and eGFP-MinC (0.5 µM) or eGFP-MinD (100 nM), on a DOPC/DOPG bilayer, imaged at 37 °C; only the binder purified.
A further assay deals with T2, FtsA(R286W) (E. coli) (UniProt P0ABH0).
T2 sequence: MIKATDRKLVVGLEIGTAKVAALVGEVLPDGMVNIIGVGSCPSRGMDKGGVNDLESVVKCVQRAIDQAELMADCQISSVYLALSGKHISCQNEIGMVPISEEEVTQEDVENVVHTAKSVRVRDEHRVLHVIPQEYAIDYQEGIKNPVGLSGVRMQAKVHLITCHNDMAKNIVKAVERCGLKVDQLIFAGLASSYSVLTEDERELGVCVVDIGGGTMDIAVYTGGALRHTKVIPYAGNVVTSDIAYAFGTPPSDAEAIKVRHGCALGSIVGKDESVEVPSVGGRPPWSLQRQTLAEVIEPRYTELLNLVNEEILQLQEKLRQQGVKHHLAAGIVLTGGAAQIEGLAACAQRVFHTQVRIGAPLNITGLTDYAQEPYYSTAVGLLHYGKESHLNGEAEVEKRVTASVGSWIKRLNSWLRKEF
Described as above.

A further assay addresses T3, FtsA (E. coli) (UniProt P0ABH0).
T3 sequence: T2 sequence with W286R
The assay is described as above.

Another assay deals with MinE (E. coli) (UniProt P0A734). The description is as above.

Changes are numbered by the printed parent chain. Results are given in words; binding and its absence hold for the method and conditions named. Some results given as binding are weak or reduced against the parent protein; the word gives no strength. For some assays here: Sequences can lack the tags named with a protein.

As for “FtsZ conjugated to the AlexaFluor647 fluorophore (from UniProt P0A9A6 1-383)”, the binding entry in assay [1] is reported as “binds weakly”; with MinD (E. coli) it was “no binding (tested: 3 µM FtsZ-A647)”; with FtsA(R286W) (E. coli), “binds”; with FtsA (E. coli), “binds”; with MinE (E. coli), “no binding (tested: 3 µM FtsZ-A647)”.
